Experimental data from PubChem BioAssay AID504841 (National Center for Advancing Translational Sciences (NCATS), 2011).
The whole screen tested about 1,100 compounds, of which about 160 (15%) were called active. Inconclusive means that the source gave no clear call. Such entries were picked first, then a sample of the others. Calls follow the shape of the dose curve; as a rule, active = well fitted inhibition curve with a large enough effect; inconclusive = small, poorly fitted or top-dose-only effect; inactive = no such curve, though single readings can be large or run the other way. Where the call is inconclusive, the potency comes from a doubtful curve fit.

target: ATP-dependent DNA helicase Q1 (Homo sapiens) (UniProt P46063); experiment: Confirmation qHTS Assay for Inhibitors of RecQ-Like Dna Helicase 1 (RECQ1) - Round 2 Cherry Picks; settings: recombinant RECQ1 DNA unwinding, red fluorescence; series mostly up to 119 µM; also: nearly all actives have a fitted effect of over 50% in size
UniProt P46063, sequence (P46063 whole entry, looked up): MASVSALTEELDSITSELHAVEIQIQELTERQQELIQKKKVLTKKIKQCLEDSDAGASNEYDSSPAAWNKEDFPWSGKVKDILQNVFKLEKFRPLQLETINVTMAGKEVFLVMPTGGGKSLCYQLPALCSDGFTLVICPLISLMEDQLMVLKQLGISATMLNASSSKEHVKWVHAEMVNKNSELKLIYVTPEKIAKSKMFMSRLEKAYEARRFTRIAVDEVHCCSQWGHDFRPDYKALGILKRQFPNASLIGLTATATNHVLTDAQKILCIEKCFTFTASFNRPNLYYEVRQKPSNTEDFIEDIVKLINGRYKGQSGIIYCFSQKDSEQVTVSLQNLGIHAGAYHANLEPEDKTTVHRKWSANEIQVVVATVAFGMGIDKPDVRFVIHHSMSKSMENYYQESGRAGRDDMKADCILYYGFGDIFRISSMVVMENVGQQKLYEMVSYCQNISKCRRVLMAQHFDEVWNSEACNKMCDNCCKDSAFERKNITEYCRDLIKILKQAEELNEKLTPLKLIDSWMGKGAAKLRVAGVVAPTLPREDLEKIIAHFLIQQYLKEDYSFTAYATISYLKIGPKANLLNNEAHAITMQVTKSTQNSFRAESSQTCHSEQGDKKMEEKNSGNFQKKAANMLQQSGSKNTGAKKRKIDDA
In short: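 RECQ1T1 (50 nM) preincubated 15 min with compound, then 200 nM TAMRA/BHQ-2 forked duplex and 2 mM ATP added (final). Buffer pH 8.0 with 2.5 ug/ml poly(dI-dC); fluorescence increase read twice, 2 hours apart, at room temperature.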
Potency is read from the fitted curve at half-maximal effect; tags tell the direction and shape of the fitted curve.

SMILES | Potency
CCCCOC(=O)CSC1=C(C#N)C(c2ccccc2OC)C(C#N)C(=O)N1 (stereo unspecified) | inconclusive: 89.1 µM [inhibitor, partial curve, poor fit]
Cn1cnnc1SCC(=O)Nc1sc2c(c1C(N)=O)CCC2 | inconclusive: 6.31 µM [inhibitor, partial curve]
CCOc1cccc(OCCOc2ccccc2[N+](=O)[O-])c1 | inactive
CCn1c(CSc2nnc(-c3ccncc3)n2C)nc2cc(C(=O)O)ccc21 | active: 79.4 µM
COc1cc(/C=C(\C#N)c2nc3ccccc3s2)cc([N+](=O)[O-])c1O | active: 35.5 µM
Nc1ccc(-c2nc3ccc(N)cc3[nH]2)cc1 | inconclusive: 50.1 µM [inhibitor, partial curve]
O=C1/C(=C/c2ccc(O)c(O)c2)Oc2ccccc21 | active: 44.7 µM
Cc1ccc(C2=NC(=O)/C(=C/c3cc(O)c(O)c(Br)c3)S2)cc1 | active: 6.31 µM
Cc1ccc(-c2nn(-c3cccc(F)c3)cc2CN2CCN(c3ccccn3)CC2)o1 | inconclusive: 56.2 µM [inhibitor, partial curve, poor fit]
CNc1ccc(Br)cc(C(=O)/C=C/c2ccc(OC)cc2)c1=O | inactive
O=c1cc(-c2ccccc2)nc2nc(-c3ccco3)[nH]n12 | inactive
CCn1c(SCC(=O)c2ccc(O)c(O)c2)nnc1-c1ccc(C)cc1 | inconclusive: 3.55 µM [inhibitor, full curve]
COC(=O)c1c(NC(=O)Cc2cccs2)sc2c1CCCC2 | inconclusive: 63.1 µM [inhibitor, partial curve, poor fit]
Cc1cc2ccccc2n1CCNC(=O)c1ccc(S(=O)(=O)N2CCCCC2)cc1 | active: 79.4 µM
CC1CCCCC12NC(=O)N(CC(=O)Nc1sc3c(c1C(N)=O)CCC3)C2=O (stereo unspecified) | inactive
Cc1c(NC(=O)COC(=O)c2cc(-c3cccc4ccccc34)nc3ccccc23)c(=O)n(-c2ccccc2)n1C | inconclusive: 28.2 µM [inhibitor, partial curve, poor fit]
O=C1ON=C(c2ccccc2)/C1=C/c1ccco1 | inactive
Cc1ccc(/C=C/C(=O)c2nc3ccccc3[nH]2)cc1 | inactive
CCCN1C(=O)/C(=C/c2ccco2)SC1=Nc1ccc(OC)cc1 | inactive
COC(=O)CCCC1=CC2=CC(=O)C(C)(OC(=O)c3cccs3)C(=O)C2=CO1 (stereo unspecified) | inconclusive: 50.1 µM [inhibitor, partial curve]
CCc1nnc(NS(=O)(=O)c2ccc(NC(=S)NC(=O)/C=C/c3ccccc3)cc2)s1 | inconclusive: 56.2 µM [inhibitor, partial curve]
Nc1ccc(-c2nc3ccc(-c4nc5ccc(N)cc5[nH]4)cc3[nH]2)cc1 | active: 31.6 µM
O=C(NC1CCC(O)CC1)c1cc(-c2ccco2)nc2ccccc12 (stereo unspecified) | inconclusive: 79.4 µM [inhibitor, partial curve]

SMILES | Potency
CCOc1ccc(C(=O)Nc2cc(-c3nc4ccccc4[nH]3)ccc2Cl)cc1[N+](=O)[O-] | active: 56.2 µM
CCc1cc(=O)oc2cc(C)c(CN3CCCCC3)c(O)c12 | inactive
Nc1nc(Nc2cccc(Cl)c2)nc(NCCO)c1[N+](=O)[O-] | active: 50.1 µM
O=C(CSc1n[nH]c(-c2ccccc2)n1)c1ccc(O)c(O)c1 | inconclusive: 44.7 µM [inhibitor, partial curve]
Cc1ccc(C(=O)c2cc([N+](=O)[O-])ccc2N2CCCCC2)c(C)c1 | inactive
O=C(O)CC/C(=C\c1cccc(NC(=O)c2ccccc2Cl)c1)c1nc2ccccc2s1 | inconclusive: 56.2 µM [inhibitor, partial curve, poor fit]
C=CCN1C(=O)CS/C1=N\S(=O)(=O)c1ccc(Cl)cc1 | inactive
Cc1nnc2ccc(-c3cccc(NC(=O)Cc4cccs4)c3)nn12 | inactive
O=C(COC(=O)/C=C/c1ccco1)NCc1ccc2c(c1)OCO2 | inconclusive: 63.1 µM [inhibitor, partial curve, poor fit]
Cc1cc(-c2nc3c4c5c(sc4[nH]c(=O)n3n2)CCC5)c(C)o1 | inconclusive: 35.5 µM [inhibitor, full curve]
CCOc1ccc2[nH]c(=O)c(C(c3nnnn3Cc3ccco3)N3CCN(C)CC3)cc2c1 (stereo unspecified) | inactive
Cc1cc(/C=C2\C(=N)N3N=C(c4ccco4)SC3=NC2=O)c(C)n1Cc1ccccc1 | inconclusive: 44.7 µM [inhibitor, partial curve]
N=C1/C(=C\c2ccc(SCc3ccco3)o2)C(=O)N=C2SC=NN12 | inconclusive: 63.1 µM [inhibitor, partial curve, poor fit]
CNC(=O)COC(=O)c1cc(-c2ccco2)nc2ccccc12 | inconclusive: 63.1 µM [inhibitor, partial curve, poor fit]
O=C(COC(=O)CCC(=O)c1ccc(Cl)cc1)NCc1ccco1 | inconclusive: 50.1 µM [inhibitor, partial curve]
COc1cc(-c2nnc(SCc3cc(=O)oc4cc(O)c(O)cc34)o2)cc(OC)c1OC | inconclusive: 0.398 µM [inhibitor, full curve]
Cc1cc2cc(C(c3nnnn3Cc3ccco3)N3CCc4ccccc43)c(=O)[nH]c2cc1C (stereo unspecified) | inactive
COc1cc(/C=C2\CCc3c2nc2ccccc2c3C(=O)O)cc(OC)c1OC | inconclusive: 8.91 µM [inhibitor, full curve]
Cc1cc(C)n2nc(C(=O)OCC(=O)c3cc(C)n(C)c3C)nc2n1 | inconclusive: 28.2 µM [inhibitor, full curve]
COC(=O)CCC(=O)OC1(C)C(=O)C2=COC(c3ccc(OC)cc3)=CC2=C(Br)C1=O (stereo unspecified) | active: 56.2 µM
Cc1cnc(CNc2ncnc3ccc(-c4ccc5c(c4)OCO5)cc23)cn1 | inconclusive: 50.1 µM [inhibitor, partial curve]
Cc1[nH][nH]c(=O)c1C(c1ccc(-c2ccc(C(=O)O)cc2)o1)c1c(C)[nH][nH]c1=O | inactive
O=S(=O)(c1ccccc1)n1c(C(O)c2ccccn2)cc2ccccc21 (stereo unspecified) | inactive
